Data on 59 molecules can be found in PMC4336329 (PLoS ONE, 2015).

In all, about 310,000 compounds went through this assay and about 14,000 (4.5%) showed an effect of 50% or more. Effects have a minus sign here. The list shows a part of the results.
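Further: peak tail current of the secondary pulse compared with the same well before compound.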

Sequence of human ether-à-go-go-related gene (hERG) potassium channel (Q12809 whole entry, looked up): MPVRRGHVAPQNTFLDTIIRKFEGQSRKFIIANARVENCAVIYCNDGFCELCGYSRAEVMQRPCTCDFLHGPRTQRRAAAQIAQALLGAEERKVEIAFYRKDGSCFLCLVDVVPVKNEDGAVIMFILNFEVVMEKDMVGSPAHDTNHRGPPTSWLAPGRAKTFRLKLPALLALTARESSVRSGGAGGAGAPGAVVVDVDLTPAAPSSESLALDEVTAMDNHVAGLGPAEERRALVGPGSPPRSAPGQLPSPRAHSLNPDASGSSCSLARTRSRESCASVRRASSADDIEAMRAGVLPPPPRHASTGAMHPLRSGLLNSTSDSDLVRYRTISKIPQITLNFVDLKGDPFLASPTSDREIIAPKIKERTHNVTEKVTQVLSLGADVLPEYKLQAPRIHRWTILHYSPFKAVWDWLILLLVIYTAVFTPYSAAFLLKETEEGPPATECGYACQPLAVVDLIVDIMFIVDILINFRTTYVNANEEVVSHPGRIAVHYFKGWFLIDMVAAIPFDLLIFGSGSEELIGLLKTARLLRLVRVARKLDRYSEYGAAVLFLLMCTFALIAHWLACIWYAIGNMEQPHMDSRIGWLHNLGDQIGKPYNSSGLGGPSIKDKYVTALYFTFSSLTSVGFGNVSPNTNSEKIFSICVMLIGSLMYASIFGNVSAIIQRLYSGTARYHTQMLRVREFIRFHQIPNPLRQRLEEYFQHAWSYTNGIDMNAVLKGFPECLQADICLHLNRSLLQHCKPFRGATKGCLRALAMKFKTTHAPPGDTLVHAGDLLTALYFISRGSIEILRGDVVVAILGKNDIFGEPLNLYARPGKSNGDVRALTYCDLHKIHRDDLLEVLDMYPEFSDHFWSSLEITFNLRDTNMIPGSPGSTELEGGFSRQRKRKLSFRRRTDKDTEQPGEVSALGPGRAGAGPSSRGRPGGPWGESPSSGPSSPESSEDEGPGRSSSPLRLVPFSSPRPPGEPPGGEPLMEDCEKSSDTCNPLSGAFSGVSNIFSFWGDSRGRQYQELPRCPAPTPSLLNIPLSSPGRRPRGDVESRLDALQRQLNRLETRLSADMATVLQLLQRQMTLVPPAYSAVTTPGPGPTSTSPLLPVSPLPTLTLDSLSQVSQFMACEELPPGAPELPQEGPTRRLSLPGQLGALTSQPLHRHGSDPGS

This assay has as its target human ether-à-go-go-related gene (hERG) potassium channel (human, UniProt Q12809). Kind of assay: primary screen, population patch clamp on CHO cells stably expressing hERG.
For the molecule `CC(=O)c1c(C)nc2ccc(Br)cc2c1C(=O)O`, the “hERG current change (%, negative = inhibition) at 10uM” value amounted to 19.1%.

For `Cc1cc(=O)oc2cc(OC(C)C)ccc12`, the “hERG current change (%, negative = inhibition) at 10uM” value is on record as 3.81%.

As to `CCN(CC)S(=O)(=O)c1ccc(N/N=C/c2cc(OC)ccc2O)nc1`, the “hERG current change (%, negative = inhibition) at 10uM” value is listed as 7.4%.

With `CC(Sc1ncnc2c1cnn2-c1ccccc1)C(=O)NCC1CCCO1` (centres unmarked), the “hERG current change (%, negative = inhibition) at 10uM” value was 0.0302%.

As for `COCCNC(=O)Cn1ccc2cc(S(=O)(=O)N3CCCCCC3)ccc21`, the “hERG current change (%, negative = inhibition) at 10uM” value is given as -0.742%.

On to `CCc1nnc(NC(=O)c2cc3c(s2)CCCCC3)s1`, for which the “hERG current change (%, negative = inhibition) at 10uM” value is listed as 46%.

As for `CCC(=O)c1c[nH]c(C(=O)NCCCn2ccnc2)c1`, the “hERG current change (%, negative = inhibition) at 10uM” value stood at 9.18%.

In the case of `Cc1cc(C)cc(NC(=O)c2cccn2-c2ncc(C(F)(F)F)cc2Cl)c1`, the “hERG current change (%, negative = inhibition) at 10uM” value is -6.07%.

With `Cc1ccc(S(=O)(=O)Oc2cccc(/C=N/n3cnnc3)c2)cc1`, the “hERG current change (%, negative = inhibition) at 10uM” value is -49%.

On to `CC(=O)N1CCn2c3c(c(=O)c4cc(C)ccc42)CCC31` (centres unmarked), for which the “hERG current change (%, negative = inhibition) at 10uM” value is -19.4%.

Consider `Cc1cc(-c2[nH]nc3c2C(c2cccc(O)c2)C(C#N)=C(N)O3)c(C)s1` (centres unmarked), for which the “hERG current change (%, negative = inhibition) at 10uM” value was -9.13%.

On to `O=C(C1CC(c2ccccc2O)=NO1)N1CCC2(CC1)OCCO2` (centres unmarked), for which the “hERG current change (%, negative = inhibition) at 10uM” value is on record as 8.58%.

Consider `Cc1ccc(SCC(=O)Nc2cccc(NC(=O)c3ccco3)c2)cc1`, for which the “hERG current change (%, negative = inhibition) at 10uM” value is -6.29%.

Take `COc1cc(NC(=O)c2cc3c(=O)n(C)c4ccccc4c3n2C)cc(OC)c1OC`: the “hERG current change (%, negative = inhibition) at 10uM” value was 18.2%.

For the molecule `COCCn1c(SCC(=O)NC2(C#N)CCCCC2)nc2ccccc2c1=O`, the “hERG current change (%, negative = inhibition) at 10uM” value was -49%.

In the case of `O=C1CCCC2=C1C(c1ccccc1)CC(=O)N2c1ccc(F)cc1F` (centres unmarked), the “hERG current change (%, negative = inhibition) at 10uM” value is on record as -5.22%.

Consider `Cn1c(=O)oc2cc(S(=O)(=O)NCc3ccccc3)ccc21`, for which the “hERG current change (%, negative = inhibition) at 10uM” value was determined as 1.38%.

As to `CN(CC(=O)NCCCc1ccccc1)Cc1ccc(Br)cc1`, the “hERG current change (%, negative = inhibition) at 10uM” value is reported as -13.9%.

Regarding `COc1ccc(C)cc1NC(=O)C(OC(=O)c1cc(C)oc1C)c1ccccc1` (centres unmarked), the “hERG current change (%, negative = inhibition) at 10uM” value came to 2.99%.

Consider `CCOc1ccccc1NC(=O)N1CCc2ccccc2C1`, for which the “hERG current change (%, negative = inhibition) at 10uM” value is 7.67%.

Take `CC(=O)Nc1nn(C)c2nc3cc(C)ccc3cc12`: the “hERG current change (%, negative = inhibition) at 10uM” value is given as 4.11%.

Turning to `O=C1Oc2ccccc2C(=O)/C1=C/c1ccccc1O`, the “hERG current change (%, negative = inhibition) at 10uM” value is 10.6%.

As for `Cc1ccc(C(=O)N2CCN(c3ccccn3)CC2)cc1[N+](=O)[O-]`, the “hERG current change (%, negative = inhibition) at 10uM” value is 9.02%.

Turning to `Cc1ccc(C2Nc3cccc4cccc(c34)N2)s1`, the “hERG current change (%, negative = inhibition) at 10uM” value is -4.53%.

Take `COCc1cc(C)nc(N2CCCCC2)c1C#N`: the “hERG current change (%, negative = inhibition) at 10uM” value was found to be 10.5%.

As for `Cc1ccc(NC(=O)c2ccccc2Cl)c(Cl)c1`, the “hERG current change (%, negative = inhibition) at 10uM” value is on record as -6.84%.

On to `COc1ccc(NC(=O)/C(C#N)=C/c2ccc(OCCN3CCOCC3)c(OC)c2)c(OC)c1`, for which the “hERG current change (%, negative = inhibition) at 10uM” value was 11.3%.

For the molecule `CCC(=O)N1C(Cc2ccccc2)COC1(C)C` (centres unmarked), the “hERG current change (%, negative = inhibition) at 10uM” value is -73.4%.

Consider `Cn1c(N)cc(=O)n(Cc2ccccc2)c1=O`, for which the “hERG current change (%, negative = inhibition) at 10uM” value was determined as 6.48%.

In the case of `COc1ccc(OC)c2sc(N3CCN(C(=O)c4ccc([N+](=O)[O-])s4)CC3)nc12`, the “hERG current change (%, negative = inhibition) at 10uM” value is given as -41.9%.

In the case of `O=C(O)C(=O)O.c1csc(-c2nnc(N3CCCCCC3)c3ccccc23)c1`, the “hERG current change (%, negative = inhibition) at 10uM” value is on record as -20.9%.

Consider `O=C(CN1CCOCC1)Nc1ccccc1C(=O)Nc1ccccc1`, for which the “hERG current change (%, negative = inhibition) at 10uM” value is recorded as 10.4%.

Take `CCOC(=O)c1sc(NC(=O)CSc2nc(-c3ccco3)cc(C(F)(F)F)n2)c(C(=O)OC)c1C`: the “hERG current change (%, negative = inhibition) at 10uM” value is 7.16%.

As for `COc1cc(C)c(Cl)c(C)c1S(=O)(=O)NC1CC(C)(C)NC(C)(C)C1`, the “hERG current change (%, negative = inhibition) at 10uM” value is listed as 7.91%.

Regarding `Cc1ccccc1OCc1occc1C(=O)Nc1cccc(-n2cnnn2)c1`, the “hERG current change (%, negative = inhibition) at 10uM” value is listed as -7.36%.

In the case of `O=C(COC(=O)C1CCN(c2ccc(C(F)(F)F)cn2)CC1)NCc1ccc(F)cc1`, the “hERG current change (%, negative = inhibition) at 10uM” value is -27%.

In the case of `COC(=O)CCCC(=O)Nc1ccc(Br)cc1`, the “hERG current change (%, negative = inhibition) at 10uM” value stood at 8.16%.

Regarding `OCC1CCCCN1C(=S)NCc1ccco1` (centres unmarked), the “hERG current change (%, negative = inhibition) at 10uM” value is listed as -2.65%.

With `Cn1c(=O)[nH]c(=O)c2c1nc(N1CCN(Cc3ccccc3)CC1)n2CCSc1ncccn1`, the “hERG current change (%, negative = inhibition) at 10uM” value is -25.7%.

For the molecule `Cc1ccc(NC(=S)NCCSc2ccc(Cl)cc2)c(C)c1`, the “hERG current change (%, negative = inhibition) at 10uM” value was determined as 4.92%.

With `O=C(NN1C(=O)c2ccccc2NC1c1ccccn1)c1ccc(Br)cc1` (centres unmarked), the “hERG current change (%, negative = inhibition) at 10uM” value is given as -42.6%.

As to `CCn1cc(CN2CCC(n3nccc3NC(=O)Cc3ccccc3)CC2)c(C)n1`, the “hERG current change (%, negative = inhibition) at 10uM” value is -0.831%.

As to `NC(=O)COc1ccc(NC(=O)CC23CC4CC(CC(C4)C2)C3)cc1`, the “hERG current change (%, negative = inhibition) at 10uM” value was found to be 6.92%.

With `Cc1csc(NC(CO)c2nc3ccccc3n2CCOCCO)n1` (centres unmarked), the “hERG current change (%, negative = inhibition) at 10uM” value is on record as 11.1%.

Turning to `Cn1cc(Br)c(C(=O)NC2C3CC4CC(C3)CC2C4)n1` (centres unmarked), the “hERG current change (%, negative = inhibition) at 10uM” value is given as -22.1%.

Turning to `O=C(COc1ccc(Cl)cc1Cl)Nc1ccc(CN2CCCCC2)cc1`, the “hERG current change (%, negative = inhibition) at 10uM” value is -67.9%.

As for `CSc1cccc(NC(=O)CCc2ccccc2)c1`, the “hERG current change (%, negative = inhibition) at 10uM” value came out at 9.54%.

Consider `CC(=O)N(Cc1c(C#N)c2ccccc2n1C)c1ccccc1`, for which the “hERG current change (%, negative = inhibition) at 10uM” value is recorded as -3.78%.

In the case of `COc1ccccc1C(=O)CC(=O)C(=O)Nc1cccc([N+](=O)[O-])c1C`, the “hERG current change (%, negative = inhibition) at 10uM” value was 8.79%.

As for `O=C(NCCCCCCNC(=O)c1ccccc1O)c1ccccc1O`, the “hERG current change (%, negative = inhibition) at 10uM” value was 14.8%.

Consider `CCOc1nc(NC(=O)NC(=O)c2ccccc2)nc(-c2ccccc2)n1`, for which the “hERG current change (%, negative = inhibition) at 10uM” value is reported as -2.07%.

Turning to `CC(C)c1ccc(C(=O)NN2CCOCC2)cc1`, the “hERG current change (%, negative = inhibition) at 10uM” value is listed as -1.79%.

Regarding `CCCn1c(=O)c2sccc2n2c(CCCC(=O)NCC3CCCO3)nnc12` (centres unmarked), the “hERG current change (%, negative = inhibition) at 10uM” value stood at 14.1%.

For `CC(C)(C)C(=O)N1c2ccccc2CCc2ccccc21`, the “hERG current change (%, negative = inhibition) at 10uM” value is recorded as -0.0543%.

For `Cl.Clc1cccc(CN2C3=NCCCN3c3ccccc32)c1`, the “hERG current change (%, negative = inhibition) at 10uM” value was -75.4%.

Consider `Cc1ccc(C)c(/C=N/NC(=S)NC(C)C)c1`, for which the “hERG current change (%, negative = inhibition) at 10uM” value was determined as 30.3%.

`Cc1ccc(OCCSc2nc3ccccc3n2CCC(=O)O)cc1`: the “hERG current change (%, negative = inhibition) at 10uM” value turned out to be 9.74%.

`Cc1[nH]c2ccccc2c1CCN`: the “hERG current change (%, negative = inhibition) at 10uM” value was 8.43%.

On to `CC(=O)Nc1ccc(OCCOc2ccc(NC(C)=O)cc2)cc1`, for which the “hERG current change (%, negative = inhibition) at 10uM” value is listed as 19.3%.
